# Measured values as given in the supplement of paper PMC8728848.
# The other results are listed elsewhere or left out.
# B1: SP8524D-bot-399-27-399 (Bacteroides ovatus) (protein)
# chain: DAKYDTLDTHAYIEEALSSTSQKVTVQATGESFTTLNVHLSNLSSTDNHYKLVTDQSVLDTYNHINGTGYIMLPKDYYTLPETITVKAGQYAADALSIALKAFSQEMMKSGESYALPVKLVLQDGSISPMENTGTFVILAESIIEFSAPMFVGAPSLKANKFTESPETYSQYTIEVRFQVANTADRDRAVFKNGGDDANFILLRFEDPQSDNENYKAHSLVQIVGRNRLYLNPSNSFKPNEWQHLALVCDGSNYRLYINGVDSGVLSIPTGATTFSDVNWFCLGDDSYSRWGNCKILMSEARIWSVVRSASQIQNNMTQVSPKSVGLEAYWRFNEGQGNVFEDATGKGHTLTTSATPTWIDGILSTDKSTEWK
# How the values were obtained:
# Experiment in all cases: glycan array binding signal (z-score within array); higher = stronger binding
# Conditions in all cases: glycan notation: IUPAC condensed, linker removed
# [1] = biological target: Fuc(a1-2)[Gal(a1-3)]Gal(b1-4)GlcNAc(b1-2)Man(a1-3)[Fuc(a1-2)[Gal(a1-3)]Gal(b1-4)GlcNAc(b1-2)Man(a1-6)]Man(b1-4)GlcNAc(b1-4)[Fuc(a1-6)]GlcNAc
# How it was run: (§1)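 Glycan array data came from 3228 arrays in the Consortium for Functional Glycomics database, and only arrays with an available protein sequence were kept. Glycan names were put into IUPAC-condensed notation, and columns mapping to the same glycan were averaged. The binding signal is a within-array Z-score, averaged across arrays of one protein sequence run at different concentrations or buffers and across linkers. A negative Z-score can be read as non-binding.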
# [2] = biological target: Fuc(a1-2)[Gal(a1-3)]Gal(b1-4)GlcNAc(b1-3)GalNAc
# How it was run: as §1
# [3] = biological target: Fuc(a1-2)[Gal(a1-3)]Gal(b1-4)GlcNAc(b1-3)[Fuc(a1-2)[Gal(a1-3)]Gal(b1-4)GlcNAc(b1-6)]GalNAc
# How it was run: as §1
# [4] = biological target: Fuc(a1-2)[Gal(a1-3)]Gal(b1-4)GlcNAc(b1-6)GalNAc
# How it was run: as §1
# [5] = biological target: Fuc(a1-2)[Gal(a1-3)]Gal(b1-4)[Fuc(a1-3)]Glc
# How it was run: as §1
# [6] = biological target: Fuc(a1-2)[Gal(a1-3)]Gal(b1-4)[Fuc(a1-3)]GlcNAc
# How it was run: as §1
# [7] = biological target: Fuc(a1-2)[Gal(a1-3)]Gal(b1-4)[Fuc(a1-3)]GlcNAc(b1-3)GalNAc
# How it was run: as §1
# [8] = biological target: Fuc(a1-2)[Gal(a1-4)]Gal(b1-4)GlcNAc
# How it was run: as §1
# [9] = biological target: Fuc(a1-2)[GalNAc(a1-3)]Gal
# How it was run: as §1
# [10] = biological target: Fuc(a1-2)[GalNAc(a1-3)]Gal(b1-3)GalNAc(a1-3)[Fuc(a1-2)]Gal(b1-4)GlcNAc
# How it was run: as §1
# [11] = biological target: Fuc(a1-2)[GalNAc(a1-3)]Gal(b1-3)GalNAc(b1-3)Gal(a1-4)Gal(b1-4)Glc
# How it was run: as §1
# [12] = biological target: Fuc(a1-2)[GalNAc(a1-3)]Gal(b1-3)GlcNAc
# How it was run: as §1
# [13] = biological target: Fuc(a1-2)[GalNAc(a1-3)]Gal(b1-3)GlcNAc(b1-2)Man(a1-3)[Fuc(a1-2)[GalNAc(a1-3)]Gal(b1-3)GlcNAc(b1-2)Man(a1-6)]Man(b1-4)GlcNAc(b1-4)GlcNAc
# How it was run: as §1
# [14] = biological target: Fuc(a1-2)[GalNAc(a1-3)]Gal(b1-3)GlcNAc(b1-2)Man(a1-3)[Fuc(a1-2)[GalNAc(a1-3)]Gal(b1-3)GlcNAc(b1-2)Man(a1-6)]Man(b1-4)GlcNAc(b1-4)[Fuc(a1-6)]GlcNAc
# How it was run: as §1
# [15] = biological target: Fuc(a1-2)[GalNAc(a1-3)]Gal(b1-3)GlcNAc(b1-3)GalNAc
# How it was run: as §1
# [16] = biological target: Fuc(a1-2)[GalNAc(a1-3)]Gal(b1-3)GlcNAc(b1-6)GalNAc
# How it was run: as §1
# [17] = biological target: Fuc(a1-2)[GalNAc(a1-3)]Gal(b1-4)Glc
# How it was run: as §1
# [18] = biological target: Fuc(a1-2)[GalNAc(a1-3)]Gal(b1-4)GlcNAc
# How it was run: as §1
# [19] = biological target: Fuc(a1-2)[GalNAc(a1-3)]Gal(b1-4)GlcNAc(b1-2)Man
# How it was run: as §1
# [20] = biological target: Fuc(a1-2)[GalNAc(a1-3)]Gal(b1-4)GlcNAc(b1-2)Man(a1-3)[Fuc(a1-2)[GalNAc(a1-3)]Gal(b1-4)GlcNAc(b1-2)Man(a1-6)]Man(b1-4)GlcNAc(b1-4)GlcNAc
# How it was run: as §1
# [21] = biological target: Fuc(a1-2)[GalNAc(a1-3)]Gal(b1-4)GlcNAc(b1-2)Man(a1-3)[Fuc(a1-2)[GalNAc(a1-3)]Gal(b1-4)GlcNAc(b1-2)Man(a1-6)]Man(b1-4)GlcNAc(b1-4)[Fuc(a1-6)]GlcNAc
# How it was run: as §1
# [22] = biological target: Fuc(a1-2)[GalNAc(a1-3)]Gal(b1-4)GlcNAc(b1-3)Gal(b1-4)GlcNAc
# How it was run: as §1
# [23] = biological target: Fuc(a1-2)[GalNAc(a1-3)]Gal(b1-4)GlcNAc(b1-3)Gal(b1-4)GlcNAc(b1-3)Gal(b1-4)GlcNAc
# How it was run: as §1
# [24] = biological target: Fuc(a1-2)[GalNAc(a1-3)]Gal(b1-4)GlcNAc(b1-3)GalNAc
# How it was run: as §1
# [25] = biological target: Fuc(a1-2)[GalNAc(a1-3)]Gal(b1-4)GlcNAc(b1-3)[Fuc(a1-2)[GalNAc(a1-3)]Gal(b1-4)GlcNAc(b1-6)]GalNAc
# How it was run: as §1
# [26] = biological target: Fuc(a1-2)[GalNAc(a1-3)]Gal(b1-4)GlcNAc(b1-6)GalNAc
# How it was run: as §1
# [27] = biological target: Fuc(a1-2)[GalNAc(a1-3)]Gal(b1-4)[Fuc(a1-3)]GlcNAc
# How it was run: as §1
# [28] = biological target: Fuc(a1-2)[GalNAc(a1-3)]Gal(b1-4)[Fuc(a1-3)]GlcNAc(b1-3)GalNAc
# How it was run: as §1
# [29] = biological target: Fuc(a1-2)[GalNAc(a1-4)]Gal(b1-4)GlcNAc
# How it was run: as §1
# [30] = biological target: Fuc(a1-2)[GalNAc(b1-3)]Gal
# How it was run: as §1
# Fuc(a1-3)GlcNAc = biological target: Fuc(a1-3)GlcNAc
# How it was run: as §1
# [31] = biological target: Fuc(a1-3)[Gal(b1-4)]Glc6S
# How it was run: as §1
# [32] = biological target: Fuc(a1-3)[Gal(b1-4)]GlcNAc
# How it was run: as §1
# [33] = biological target: Fuc(a1-3)[Gal(b1-4)]GlcNAc(b1-2)Man
# How it was run: as §1
# [34] = biological target: Fuc(a1-3)[Gal(b1-4)]GlcNAc(b1-2)Man(a1-3)[Fuc(a1-3)[Gal(b1-4)]GlcNAc(b1-2)Man(a1-6)]Man(b1-4)GlcNAc(b1-4)GlcNAc
# How it was run: as §1
# [35] = biological target: Fuc(a1-3)[Gal(b1-4)]GlcNAc(b1-2)Man(a1-3)[Fuc(a1-3)[Gal(b1-4)]GlcNAc(b1-2)Man(a1-6)]Man(b1-4)GlcNAc(b1-4)[Fuc(a1-6)]GlcNAc
# How it was run: as §1
# [36] = biological target: Fuc(a1-3)[Gal(b1-4)]GlcNAc(b1-3)Gal(b1-3)[Fuc(a1-4)]GlcNAc
# How it was run: as §1
binder,measurement,setting,value
B1,glycan array binding signal (z-score),[1],0.035
same,glycan array binding signal (z-score),[2],-0.252
same,glycan array binding signal (z-score),[3],-0.277
same,glycan array binding signal (z-score),[4],-0.255
same,glycan array binding signal (z-score),[5],-0.305
same,glycan array binding signal (z-score),[6],-0.086
same,glycan array binding signal (z-score),[7],-0.316
same,glycan array binding signal (z-score),[8],0.747
same,glycan array binding signal (z-score),[9],-0.185
same,glycan array binding signal (z-score),[10],-0.104
same,glycan array binding signal (z-score),[11],-0.264
same,glycan array binding signal (z-score),[12],0.629
same,glycan array binding signal (z-score),[13],-0.142
same,glycan array binding signal (z-score),[14],-0.246
same,glycan array binding signal (z-score),[15],-0.181
same,glycan array binding signal (z-score),[16],-0.246
same,glycan array binding signal (z-score),[17],-0.241
same,glycan array binding signal (z-score),[18],-0.328
same,glycan array binding signal (z-score),[19],-0.268
same,glycan array binding signal (z-score),[20],-0.365
same,glycan array binding signal (z-score),[21],-0.208
same,glycan array binding signal (z-score),[22],0.342
same,glycan array binding signal (z-score),[23],-0.602
same,glycan array binding signal (z-score),[24],-0.499
same,glycan array binding signal (z-score),[25],-0.238
same,glycan array binding signal (z-score),[26],-0.37
same,glycan array binding signal (z-score),[27],0.06
same,glycan array binding signal (z-score),[28],-0.027
same,glycan array binding signal (z-score),[29],-0.218
same,glycan array binding signal (z-score),[30],0.093
same,glycan array binding signal (z-score),Fuc(a1-3)GlcNAc,0.311
same,glycan array binding signal (z-score),[31],-0.514
same,glycan array binding signal (z-score),[32],-0.28
same,glycan array binding signal (z-score),[33],0.413
same,glycan array binding signal (z-score),[34],-0.568
same,glycan array binding signal (z-score),[35],-0.313
same,glycan array binding signal (z-score),[36],-0.267
